About 2,200 (0.71%) of roughly 310,000 compounds showed an effect of 50% or more. The effect is printed as a negative number. The list shows a part of the results.
target: human ether-à-go-go-related gene (hERG) potassium channel (human, UniProt Q12809); experiment: primary screen, population patch clamp on CHO cells stably expressing hERG
Sequence (Q12809 whole entry, looked up): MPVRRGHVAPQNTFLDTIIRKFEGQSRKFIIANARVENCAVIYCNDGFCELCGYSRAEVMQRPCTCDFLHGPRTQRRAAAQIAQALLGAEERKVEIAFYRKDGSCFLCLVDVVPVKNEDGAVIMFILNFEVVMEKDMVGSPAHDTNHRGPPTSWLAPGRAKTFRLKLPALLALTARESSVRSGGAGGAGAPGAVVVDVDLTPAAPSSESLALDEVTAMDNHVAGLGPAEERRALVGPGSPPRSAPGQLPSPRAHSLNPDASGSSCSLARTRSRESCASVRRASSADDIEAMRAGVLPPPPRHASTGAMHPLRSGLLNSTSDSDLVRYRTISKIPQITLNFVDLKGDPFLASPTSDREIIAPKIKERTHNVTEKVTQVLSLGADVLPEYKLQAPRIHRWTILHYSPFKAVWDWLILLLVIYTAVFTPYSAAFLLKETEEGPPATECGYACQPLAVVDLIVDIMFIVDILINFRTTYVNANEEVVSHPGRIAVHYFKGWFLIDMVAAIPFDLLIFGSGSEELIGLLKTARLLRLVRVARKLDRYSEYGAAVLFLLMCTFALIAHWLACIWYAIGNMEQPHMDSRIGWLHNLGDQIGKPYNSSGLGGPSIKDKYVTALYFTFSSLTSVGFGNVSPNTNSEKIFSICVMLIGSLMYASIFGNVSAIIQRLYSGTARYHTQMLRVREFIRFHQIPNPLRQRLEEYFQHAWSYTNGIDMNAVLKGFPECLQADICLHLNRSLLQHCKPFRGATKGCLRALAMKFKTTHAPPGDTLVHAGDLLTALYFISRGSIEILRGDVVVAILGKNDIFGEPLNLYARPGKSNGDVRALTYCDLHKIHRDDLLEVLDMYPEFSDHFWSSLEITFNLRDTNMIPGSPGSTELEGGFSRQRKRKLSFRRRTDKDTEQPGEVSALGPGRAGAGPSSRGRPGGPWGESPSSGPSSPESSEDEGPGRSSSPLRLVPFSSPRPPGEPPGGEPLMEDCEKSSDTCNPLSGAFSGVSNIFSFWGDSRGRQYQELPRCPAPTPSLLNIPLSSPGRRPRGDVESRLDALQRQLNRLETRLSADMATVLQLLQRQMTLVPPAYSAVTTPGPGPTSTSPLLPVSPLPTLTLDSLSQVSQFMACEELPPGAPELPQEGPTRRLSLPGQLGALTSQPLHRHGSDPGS

Structure (SMILES) | hERG current change (%, negative = inhibition) at 1uM
Cn1cc(CN(CCCN2CCOCC2)C(=S)Nc2cccc(Cl)c2)c2ccccc21 | -11.4%
O=c1cnnc(Nc2ccccc2)[nH]1 | 14.6%
O=C(NC(=O)c1cccc(OC(F)(F)C(F)F)c1)OC1CCS(=O)(=O)C1 (stereo not shown) | -3.81%
CCOc1cccc(C(=O)Nc2cccc(C(C)=O)c2)c1 | 14.3%
Cc1c(NC(=O)c2c([N+](=O)[O-])cnn2C)c(=O)n(-c2ccccc2)n1C | 4.38%
CN(CCc1ccccn1)C(=O)Nc1cccc(Cl)c1 | 7.87%
Cc1cccc(NC(=O)C2Cc3ccccc3CN2C(=O)OCc2ccccc2)c1C (stereo not shown) | -9.52%
O=C(NCc1ccco1)c1ccc(Cn2c(=O)c3sccc3n(Cc3cccc(F)c3)c2=O)cc1 | 14.9%
CCn1c(CNC(=O)Cc2ccc(OC)cc2)n[nH]c1=S | 11.7%
COc1cc(NC(=O)CCCNC(=O)c2ccc(Cl)cc2)cc(OC)c1 | 12.3%
O=C(NCCCn1ccnc1)C(=O)NCC1OCCN1S(=O)(=O)c1ccc2c(c1)OCCO2 (stereo not shown) | 15.3%
COc1cc(NC(=S)NCc2cccnc2)cc(OC)c1 | 15.1%
Cc1cc([N+](=O)[O-])ccc1NC(=O)CN1C2CCC1CC(NC(=O)NC13CC4CC(CC(C4)C1)C3)C2 (stereo not shown) | 10.7%
Cc1[nH]c(=O)[nH]c(=O)c1/C=N/NC(=O)[C@H](C)N.Cl | 14.2%
COc1cc2c(cc1OC)CN(Cc1cc(OC)c(O)c(OC)c1)CC2 | 5.66%
CC(CCc1ccc(O)cc1)NCCC(c1ccccc1)c1ccccc1 (stereo not shown) | -84.2%
c1ccc(COc2cccc(CN3CCN(c4ccccn4)CC3)c2)cc1 | 16%
O=C(CSc1nc2c(cnn2-c2cccc(Cl)c2)c(=O)[nH]1)NCCC1=CCCCC1 | 7.82%
Fc1ccc(OCCCCCN2CCCC2)cc1 | 0.577%
Cc1ccc(S(=O)(=O)Nc2ccc3c(c2)nc(CCN2CCCCC2)n3C)cc1 | -29.7%

Structure (SMILES) | hERG current change (%, negative = inhibition) at 1uM
CCCn1c(C)cs/c1=N\C(=S)Nc1ccccc1 | 11.5%
COc1ccc(Cl)cc1C(=O)NNC(=O)COC(=O)CCN=C1NS(=O)(=O)c2ccccc21 | -0.399%
O=C(NNC1CC(=O)N(c2ccc3c(c2)OCCO3)C1=O)c1ccc(Cl)cc1 (stereo not shown) | 10.2%
COc1ccc(OC)c(NC(=O)COc2ccc(S(=O)(=O)NC(C)C)cc2)c1 | 1.74%
COc1cnn(-c2ccccc2)c(=O)c1SCc1ccc(Cl)c(Cl)c1 | 13.2%
Cc1cccc(C)c1N1CCN(c2cc(Cl)nc(N)n2)CC1 | -0.904%
O=C(C1CCCN(Cc2nc(-c3ccc(Cl)cc3)no2)C1)N1CCOCC1 (stereo not shown) | 5.15%
CC(=O)c1nc2ccccc2n1S(=O)(=O)c1ccc(C)cc1 | 15.8%
CCN(CCNC(=O)c1cc(C)nn1-c1ccccc1)c1ccccc1 | 9.65%
CCN(CC)C(=O)CSc1nc2ccccc2c(=O)n1-c1ccccc1OC | -3.55%
CCN(/N=C/c1ccc(Cl)cc1)c1cc(=O)n(C)c(=O)[nH]1 | 5.53%
COc1ccccc1NS(=O)(=O)c1ccc(C)c(NC(=O)c2c(C)noc2C)c1 | 4.9%
CCc1ccccc1N1C(=O)CC(=O)NC1=O | 12.9%
CC(C)(C)n1ncc2c(=O)n(Cc3c(F)cccc3Cl)cnc21 | 4.71%
Cc1ccc(NC(=O)Nn2cnnc2)cc1 | 7.94%
COC(=O)Nc1sc2c(c1C(=O)NC1CC1)CCCCCC2 | -8.23%
CCOC(=O)c1cc(-c2ccc(C)cc2)n(CCC(=O)NC(C)CC)c1C (stereo not shown) | 19.1%
C=C(C)CNC(=S)N/N=C(\C)c1ccc(OC)cc1 | 14.8%
CCCOc1ccc(C(=O)N2CCCC2)cc1OC | 3.71%
COc1ccc(N/C=C(\C2OC(=O)c3ccccc32)[N+](=O)[O-])cc1 (stereo not shown) | 10.7%

Structure (SMILES) | hERG current change (%, negative = inhibition) at 1uM
CCc1nnc(NC(=O)CCC(=O)N2CCN(CCOc3ccc(C)cc3)CC2)s1 | 2.03%
Cc1cc(Nc2cccc([N+](=O)[O-])c2)c2cccc(C)c2n1.Cl | -73.5%
COc1cccc(CNC(=O)CNC(=O)N2CC(=O)Nc3ccccc32)c1 | 22.5%
Cc1nc(-c2cccnc2)sc1C(=O)Nc1ccc(F)cc1F | 2.61%
COc1ccc(NC(=O)c2ccc3nc[nH]c3c2)cc1 | 14.3%
Cc1ccc2cc3cc(C(=O)NC4CC4)oc3nc2c1 | 8.06%
O=C(O)c1cnc(N2CCOCC2)nc1 | 11.1%
CC(=O)c1c(C)[nH]c(C(=O)NC2=NCCS2)c1C | 12.9%
CCN(c1ccccc1)S(=O)(=O)c1ccc(Cl)c(NC(=O)c2ccc(=O)[nH]n2)c1 | 1.67%
CC(C)N(Cc1nc(-c2ccc(Cl)cc2)no1)C(=O)c1cccs1 | -0.369%
Cc1ccc(/C=N/NC(=O)c2cccs2)cc1[N+](=O)[O-] | 2.23%
Cc1nn(CCCC(=O)NCCc2ccccc2)c(=O)c2nccn12 | 7.57%
Cc1c(CN2CCCCC2)c(O)n(CCCO)c(=O)c1C#N | 7.05%
O=C(/C=C/c1ccco1)NC(=S)Nc1ccc(N2CCCC2)cc1 | 1.36%
O=C(NCc1ccccc1F)c1ccc2ccccc2n1 | 12%
Cc1cccc2cc(C(c3nnnn3Cc3ccccc3)N3CCN(C)CC3)c(=O)[nH]c12 (stereo not shown) | -1.27%
O=C(O)C(Cc1cnc[nH]1)NS(=O)(=O)c1ccc(Cl)cc1 (stereo not shown) | 2.62%
CCOC(=O)CNc1nnc(SCC(=O)OCC)[nH]c1=O | 12.5%
